Drawing on PubChem BioAssay AID463173 (ICCB-Longwood Screening Facility, Harvard Medical School, 2010), this text covers survival for 93 molecules.

Out of some 52,000 compounds screened, about 1,700 (3.3%) were called active. Cut-off read from the data, not from the text of the source: active = survival mostly below about 52% (no sharp cut-off); inactive = mostly above about 56%. The list shows a part of the results.

This assay concerns Wild type. As to the kind of experiment: S. aureus survival, RN4220 and DeltatarO strains – OD600, teichoic acid synthesis inhibitors, primary screen (AID 463173). The settings on record: S. aureus RN4220 wild type/DeltatarO growth, OD600, 18 h, hits give low values, screened at 18.75 µg/mL (by protocol).
Consider `Cc1ccccc1OC(=O)CSc1nnc(-c2ccc(F)cc2)o1`, for which the survival is inactive: 84%.

`CCOC(=O)c1cc(C)n(CC2CCC(C(=O)Nc3ccc(C)c(F)c3)CC2)c1C` (stereo not drawn): the survival was inactive: 75%.

Regarding `O=C(O)c1cc2n(n1)C(C(F)(F)F)CC(C1CC1)N2` (stereo not drawn), the survival was inactive: 103%.

Regarding `Cc1ccc(C(=O)Nc2ccc(-c3nc4ccccc4s3)cc2C)cc1C`, the survival is inactive: 73%.

`Cc1ccc(OCC(=O)N2CCC(C)CC2)cc1C`: the survival was inactive: 109%.

On to `CCNC(=S)N1CCC(NC(=O)c2ccccc2)CC1`, for which the survival is inactive: 107%.

For the molecule `COc1ccc(N2CC(NC(=O)CCCc3ccccc3)CC2=O)cc1` (stereo not drawn), the survival is active: 0%.

With `COC(=O)c1ccccc1NC(=O)Nc1nnc(N2CCC(C)CC2)s1`, the survival is inactive: 86%.

For the molecule `CCOc1cc(CNC(=O)NC2COc3ccc(OC)cc3C2)cc(OCC)c1OCC` (stereo not drawn), the survival is inactive: 73%.

As for `CCOc1ccc(CNCc2c(C(=O)O)n(Cc3ccc(C)cc3)c3cc(C)ccc23)cc1`, the survival is inactive: 21%.

In the case of `Cc1c(Cl)cccc1NC(=O)CN(CCc1ccccc1)S(=O)(=O)c1ccccc1`, the survival is inactive: 71%.

With `Cc1ccccc1OCC(=O)Nc1ccc(-c2nc3ncccc3o2)cc1`, the survival was inactive: 69%.

Regarding `CCCCN(CC)CCNC(=O)c1cc2c(=O)[nH]c3ccccc3c2n1C`, the survival is inactive: 74%.

As for `Cc1cccc(C(=O)N2CCc3cc(CNS(=O)(=O)c4ccc(Cl)s4)ccc32)c1`, the survival was inactive: 81%.

In the case of `CN(C)c1nc(OCCNC(=O)COc2ccccc2Cl)nc(N(C)C)n1`, the survival was inactive: 107%.

Regarding `Cc1ccccc1NS(=O)(=O)c1ccc2[nH]cc(C(=O)N3CCCCC3)c(=O)c2c1`, the survival is inactive: 68%.

With `COc1ccc(C)cc1-n1nnc(-c2nc(-c3ccccc3Cl)no2)c1N`, the survival is inactive: 91%.

Take `O=C(NCc1ccccc1)c1ccc(CSc2nc3cccnc3n2Cc2cccc(F)c2)cc1`: the survival was inactive: 78%.

With `CC(C)n1c(SCc2ccccc2)nnc1C1CCCN(CC(N)=O)C1` (stereo not drawn), the survival was inactive: 112%.

With `CCCCn1nc(NC(=O)c2cccc(Cl)c2)c2cc3ccccc3nc21`, the survival was inactive: 86%.

Take `CCCCn1c(NCc2ccc(OC)cc2O)nc2ccccc21`: the survival is inactive: 88%.

Consider `O=C(NCc1ccc(F)cc1)c1ccc2c(O)c(S(=O)(=O)c3ccccc3)c(=O)[nH]c2c1`, for which the survival is inactive: 88%.

For the molecule `Cc1ccccc1CN1C(=O)c2ccccc2Sc2ccc(C(=O)N3CCCC3)cc21`, the survival was inactive: 85%.

Take `COc1ccc(N=c2oc3ccc(Cl)cc3cc2C(=O)NCc2ccco2)cc1OC`: the survival is inactive: 111%.

With `Cc1c(C(N)=O)sc2ncn(Cc3ccccc3)c(=O)c12`, the survival was inactive: 112%.

For `CC(C)c1ccc(C(=O)Nc2cc(-c3ccccc3F)nn2-c2ccccc2)cc1`, the survival was inactive: 73%.

As for `CCN(C(=O)c1coc(=O)c2ccccc12)c1ccccc1C`, the survival was inactive: 124%.

Take `Cc1ccc(-c2nnn3c2nc(NCCc2ccc(Cl)cc2)c2ccccc23)cc1`: the survival is inactive: 85%.

For `COc1ccccc1N1CCN(S(=O)(=O)c2ccc(S(=O)(=O)NC3CCCC3)cc2)CC1`, the survival was inactive: 112%.

With `O=Nc1[nH]c(O)c2cc(Br)ccc12`, the survival is inactive: 110%.

In the case of `CN1CCN(S(=O)(=O)c2cccc3nsnc23)CC1`, the survival is inactive: 103%.

As to `CC1Cc2cc(CSC(=N)N)ccc2O1` (stereo not drawn), the survival is inactive: 108%.

For the molecule `C=CCNC(=O)CN1CCC(O)(c2ccccc2F)CC1`, the survival was inactive: 100%.

`CCCOc1ccc(CNC(=O)Cn2ncn3c(cc4sc(CC)cc43)c2=O)cc1`: the survival was inactive: 93%.

As for `Cc1ccc(-c2nc3ccccn3c2Nc2ccccc2C)s1`, the survival was active: 11%.

With `Cc1c(C(=O)N2CCCCCC2)c(S(=O)(=O)NCc2ccc(Br)cc2)c(C)n1C`, the survival is inactive: 95%.

Turning to `Cc1cc(C)nc(SCC(=O)OCN2C(=O)c3ccccc3C2=O)n1`, the survival is inactive: 113%.

Turning to `COc1ccc(Nc2cc(C(=O)NC3CCC(C)CC3)c3ccccc3n2)cc1OC` (stereo not drawn), the survival is inactive: 82%.

With `CCOc1ccc(CNC(=O)c2ccc3nc(C(C)C)oc3c2)cc1`, the survival was inactive: 81%.

For `COC(=O)c1ccc(NC(=O)NCCn2nnc3cc(S(=O)(=O)N(C)C)ccc32)cc1`, the survival was inactive: 55%.

Regarding `Cc1nn(CC(=O)O)c2c1C1C(C2)C1(C)C` (stereo not drawn), the survival was inactive: 109%.

Consider `CCOc1ccccc1C(=O)Nc1c(C(=O)Nc2ccc(F)cc2)oc2ccccc12`, for which the survival was inactive: 76%.

On to `Cn1c(=O)c(=O)n(C)c2cc(S(=O)(=O)CCC(=O)Nc3ccc(F)cc3)ccc21`, for which the survival is inactive: 89%.

On to `Oc1ccc2ccccc2c1CN1CCCC1`, for which the survival was inactive: 103%.

With `CCOc1ccc(C2Nc3c(C)cccc3-c3cc(C)nn32)cc1` (stereo not drawn), the survival was active: -14%.

On to `COc1ccc(S(=O)(=O)NCC(c2ccco2)S(=O)(=O)c2cccs2)cc1C` (stereo not drawn), for which the survival was inactive: 88%.

Consider `O=C1Nc2ccccc2C12Nc1ccccc1CO2` (stereo not drawn), for which the survival was inactive: 111%.

For the molecule `O=C(C1CCN(Cc2ccccc2)CC1)N1CCN(c2ccccc2F)CC1`, the survival is inactive: 96%.

Turning to `CC1=NN(C(=O)c2cccnc2)C(O)(c2ccccc2)C1` (stereo not drawn), the survival was inactive: 96%.

Take `Cc1oc2ncnc(N3CCOCC3)c2c1C(=O)N(Cc1ccccc1)C(C)C`: the survival is inactive: 55%.

As to `CCOc1ccc(NC(=O)c2cnn3c2NC(c2cccc(OC)c2)=CC3c2ccccc2)cc1` (stereo not drawn), the survival is inactive: 63%.

As to `Cc1ccc(C2=NN(CC(=O)NCCC(C)C)C(=O)CC2)cc1`, the survival was active: 10%.

As for `CCOC(=O)c1cc(OC(=O)c2ccc(C)cc2)n(-c2ccccc2)n1`, the survival is inactive: 135%.

With `COc1cccc(-c2nnc(-c3ccccc3NC(=O)c3cccc(C(F)(F)F)c3)o2)c1`, the survival is inactive: 90%.

With `O=c1c(S(=O)(=O)c2ccccc2)cn(Cc2cccc(F)c2)c2cc(N3CCOCC3)c(F)cc12`, the survival is inactive: 85%.

Turning to `COc1ccc(OC(=O)c2nc(SCc3ccc(F)cc3)ncc2Cl)cc1`, the survival was inactive: 83%.

As for `CCOC(=O)c1ccc(NC(=O)c2c(NCc3cccs3)sc3c2CCCC3)cc1`, the survival was inactive: 71%.

For `CCc1ccc(S(=O)(=O)c2cn(C)c3cc(N4CCC(C)CC4)c(F)cc3c2=O)cc1`, the survival is inactive: 80%.

As for `Cn1c(=O)n(C)c2cc(N3CCOCC3)c(NC(=O)c3ccccc3Br)cc21`, the survival is inactive: 81%.

As for `Cc1ccc(C(=O)Nc2nnc(S(=O)(=O)N3c4ccccc4CC3C)s2)cc1` (stereo not drawn), the survival is inactive: 38%.

As for `COc1ccc(NC(=O)c2ccco2)cc1NC(=O)COc1ccccc1`, the survival is inactive: 78%.

In the case of `COc1cccc(CNC(=O)c2cc(S(=O)(=O)N3CCCCC3)cn2C)c1`, the survival was active: -2%.

`CC(C)(C)NC(=O)Cn1c(SCC(=O)c2ccc3c(c2)OCCO3)nc2ccccc21`: the survival was inactive: 105%.

With `COc1ccc(CNC(=O)CN2C(=O)CSc3ccc(S(=O)(=O)N4CCOCC4)cc32)c(OC)c1`, the survival is inactive: 90%.

On to `CC(=O)Nc1ccc(NC(=O)CSc2nc3ccccc3nc2N2CCC(C)CC2)cc1`, for which the survival was inactive: 80%.

Turning to `N#Cc1c(NC(=O)C2CC(=O)NN2Cc2ccccc2)sc2c1CCCC2` (stereo not drawn), the survival was inactive: 111%.

With `CCOC(=O)CSc1nnc(CNc2cccc(C(F)(F)F)c2)n1CC`, the survival is inactive: 105%.

Regarding `CCCCS(=O)(=O)/C=C\C1C2C=CC(C2)C1S(=O)(=O)CCCC` (stereo not drawn), the survival is inactive: 115%.

In the case of `Cc1ccccc1Cn1c2ccccc2c2cnn(CC(=O)NCCc3ccccc3)c(=O)c21`, the survival is inactive: 130%.

On to `COc1ccc(NC(=O)C(Cc2ccccc2)n2cccc2)cc1OC` (stereo not drawn), for which the survival is inactive: 82%.

Regarding `COc1cc(-c2noc(CCC(=O)Nc3cc(C)ccc3C)n2)cc(OC)c1OC`, the survival is inactive: 82%.

For `Cc1ccc(-n2ncc(C(=O)NCCc3c[nH]c4ccccc34)c2C2CCN(C(=O)OC(C)(C)C)CC2)cc1C`, the survival was inactive: 142%.

`COc1ccc(NC(=O)CCS(=O)(=O)c2ccc3nc(C)sc3c2)cc1Cl`: the survival is inactive: 81%.

In the case of `CCn1c(=O)c2sccc2n2c(CCC(=O)N3CCN(c4ccc(C(C)=O)cc4)CC3)nnc12`, the survival was inactive: 61%.

`Cc1ccccc1C(=O)N(Cc1nc(-c2ccc(Cl)cc2)no1)C(C)C`: the survival was inactive: 86%.

In the case of `CNC(=O)c1c(NC(=O)/C=C/c2ccccc2Cl)sc2c1CCC2`, the survival was inactive: 72%.

On to `Cc1ccc(OC(=O)CSc2nnc(-c3cccs3)o2)cc1`, for which the survival was inactive: 82%.

As to `COc1ccc(C(=O)c2oc3ccccc3c2NC(=O)COc2cccc(C)c2C)cc1`, the survival is inactive: 71%.

With `CCC(=O)Nc1ccc(CC)cc1-c1nc2ccccc2n(Cc2ccccc2)c1=O`, the survival is inactive: 81%.

Consider `O=C(Cn1c(-c2cccs2)cc2cc(Cl)ccc21)N1CCN(c2ccccc2F)CC1`, for which the survival was inactive: 70%.

As to `CC(NC(=O)CN(c1ccc(Cl)cc1Cl)S(=O)(=O)c1ccccc1)c1ccccc1` (stereo not drawn), the survival is inactive: 66%.

For the molecule `CC1CCC(NC(=O)c2cc3c(Cl)nc4ccccc4c3s2)CC1` (stereo not drawn), the survival is inactive: 83%.

For the molecule `O=C(Cn1ccc2cc(S(=O)(=O)N3CCCCC3)ccc21)NCc1cccc(Cl)c1`, the survival was inactive: 128%.

For the molecule `O=C(c1cccc(F)c1)N1CCN(C(=O)c2cccc3ccccc23)CC1`, the survival was inactive: 107%.

`Cc1cc(C)c(NC(=O)Cn2nnc(-c3ccccc3)n2)c(C)c1`: the survival was inactive: 71%.

Consider `Cc1cc(S(=O)(=O)NCC(c2ccco2)S(=O)(=O)c2ccccc2)ccc1F` (stereo not drawn), for which the survival was inactive: 69%.

As for `CCOC(=O)C(C)NC(=O)C1CCN(c2ncnc3c2nc2n3CCCCC2)CC1` (stereo not drawn), the survival was inactive: 70%.

As for `CC(=O)Nc1ccccc1-c1nc2ccccc2n(Cc2cccc(Br)c2)c1=O`, the survival is inactive: 104%.

On to `COc1ccc(F)cc1S(=O)(=O)Nc1cccc(-c2ccc(N3CCCCCC3)nn2)c1`, for which the survival was inactive: 92%.

In the case of `CCOc1ccccc1NC(=O)Cn1c(=O)n(Cc2ccccc2)c(=O)c2cccnc21`, the survival is inactive: 118%.

In the case of `N#C/C=C1\n2c(nc3ccccc32)OC12CCCCC2`, the survival was inactive: 108%.

Turning to `Cc1cccn2c(=O)cc(COc3cccc(NC(=O)COc4ccc(F)cc4)c3)nc12`, the survival was inactive: 120%.

For the molecule `O=C(CN1CCCN(Cc2ccccc2Cl)S1(=O)=O)NCc1ccccc1`, the survival was inactive: 78%.
